# In PMC4336329 (PLoS ONE, 2015):
# Hit rate of the full screen: of about 310,000 compounds, about 14,000 (4.5%) showed an effect of 50% or more. Effects have a minus sign here. Some of the results follow.
# Target: human ether-à-go-go-related gene (hERG) potassium channel (human, UniProt Q12809)
# Test: primary screen, population patch clamp on CHO cells stably expressing hERG
# 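Also: peak tail current of the secondary pulse compared with the same well before compound.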
# human ether-à-go-go-related gene (hERG) potassium channel, sequence (Q12809 whole entry, looked up): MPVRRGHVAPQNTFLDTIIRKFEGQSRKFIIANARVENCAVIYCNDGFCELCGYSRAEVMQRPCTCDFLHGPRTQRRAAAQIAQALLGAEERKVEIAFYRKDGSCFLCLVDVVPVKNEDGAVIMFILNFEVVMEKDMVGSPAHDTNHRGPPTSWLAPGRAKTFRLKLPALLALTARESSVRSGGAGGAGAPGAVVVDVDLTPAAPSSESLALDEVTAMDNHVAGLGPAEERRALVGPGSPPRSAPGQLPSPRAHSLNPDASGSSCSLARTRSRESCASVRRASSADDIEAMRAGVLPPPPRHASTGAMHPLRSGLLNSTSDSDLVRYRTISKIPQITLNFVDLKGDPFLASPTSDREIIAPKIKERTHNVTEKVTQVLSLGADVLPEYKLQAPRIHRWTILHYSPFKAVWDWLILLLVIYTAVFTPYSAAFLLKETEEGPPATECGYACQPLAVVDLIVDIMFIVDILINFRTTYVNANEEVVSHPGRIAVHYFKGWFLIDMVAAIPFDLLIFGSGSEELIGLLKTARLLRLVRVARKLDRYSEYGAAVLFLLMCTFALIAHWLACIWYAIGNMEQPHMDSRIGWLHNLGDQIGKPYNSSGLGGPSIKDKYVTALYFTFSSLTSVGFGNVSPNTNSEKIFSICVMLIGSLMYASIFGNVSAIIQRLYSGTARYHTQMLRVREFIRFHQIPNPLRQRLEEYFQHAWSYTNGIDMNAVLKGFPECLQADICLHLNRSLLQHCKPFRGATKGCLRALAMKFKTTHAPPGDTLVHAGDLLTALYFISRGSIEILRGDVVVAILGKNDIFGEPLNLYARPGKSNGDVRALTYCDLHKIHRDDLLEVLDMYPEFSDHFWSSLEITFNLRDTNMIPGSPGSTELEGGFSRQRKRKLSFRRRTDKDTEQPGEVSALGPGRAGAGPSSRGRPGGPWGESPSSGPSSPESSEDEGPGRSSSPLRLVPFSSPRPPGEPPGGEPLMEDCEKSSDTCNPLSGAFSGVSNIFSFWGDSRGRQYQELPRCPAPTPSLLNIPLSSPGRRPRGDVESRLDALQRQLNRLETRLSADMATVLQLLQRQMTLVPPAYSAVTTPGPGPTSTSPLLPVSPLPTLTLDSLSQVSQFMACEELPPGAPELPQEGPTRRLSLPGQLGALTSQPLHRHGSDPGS
row,SMILES,"hERG current change (%, negative = inhibition) at 10uM"
1,CCCc1cc(=O)n2[nH]c(NCc3ccc(Cl)cc3Cl)nc2n1,-33.1%
2,O=C(CSc1nncs1)NCc1ccc2c(c1)OCO2,0.561%
3,C#CC1(O)C=CC2C3CCC4=CC(=O)CCC4C3CCC21CC (centres unmarked),-2.88%
4,CCn1c(O)c(C=Nc2ccc(S(N)(=O)=O)cc2)c(=O)[nH]c1=S,8.07%
5,Cc1ccc(C)c(Cn2ncc3ccccc32)c1,-2.98%
6,COC(=O)c1nnc(-c2ccccc2)nc1OC,-2.57%
7,OCC[C@@H]1C[C@H](O)[C@@H](O)[C@]2(Cc3ccccc3CO2)O1,-0.333%
8,COC(=O)c1ccc(OC(=O)CCN2C(=O)C3C4c5ccccc5C(c5ccccc54)C3C2=O)cc1 (centres unmarked),2%
9,CCOC(=O)C1=C(C)Nc2ncnn2C1c1cccnc1 (centres unmarked),3.7%
10,CCCOc1ccc(NC(=O)CC2C(=O)N(CC)C(=S)N2CCCN2CCN(Cc3ccccc3)CC2)cc1 (centres unmarked),-50.5%
11,O=C(/C=C/c1ccccc1Cl)NCCCn1ccnc1,-17%
12,COc1ccc(OC)c(NC(=O)CN2C(=O)C(C)N(c3ccc(C)cc3)C2=O)c1 (centres unmarked),-9.58%
13,COc1ccc(-c2noc(Cn3cc(S(=O)(=O)N4CCCC4)ccc3=O)n2)cc1,6.47%
14,COc1cc(NC(=O)Cc2ccccc2)ccc1NC(=O)c1ccco1,18.5%
15,O=C(C(=O)N1CCN(c2ccccc2)CC1)c1c[nH]c2ccccc12,4.09%
16,Cc1cccc2[nH]c3c(=O)n(CCN4CCNCC4)cnc3c12,-4.87%
17,CN(CC(=O)Nc1ccc(F)cc1)C(=O)COC(=O)c1cc(S(=O)(=O)N(C)C)ccc1N1CCCC1,-24.2%
18,O=C1CC(c2ccc(F)cc2)SC(N(c2ccccc2)c2ccccc2)=N1 (centres unmarked),9.06%
19,N#CC(c1ccc(F)cc1)c1ccc(C(=O)c2ccc(F)cc2)cc1 (centres unmarked),5.17%
20,Cc1ccc(C(=O)N2CCCC(CCC(=O)NCc3ccccc3F)C2)cn1 (centres unmarked),13.1%

row,SMILES,"hERG current change (%, negative = inhibition) at 10uM"
1,COc1cc2c(cc1OC)C(c1cc([N+](=O)[O-])ccc1O)NCC2 (centres unmarked),27.6%
2,CCc1nnc(NC(=O)CSc2nc3cc(OC)c(OC)cc3cc2C)s1,5.07%
3,COc1ccc(OC)c(CCNC(=O)CCCc2nnc3n(C)c(=O)c4sccc4n23)c1,-1.15%
4,COc1ccc(Cc2nnc(SCC(=O)c3ccccc3)o2)cc1,-2.49%
5,O=C(NCCCN1CCCC1=O)Nc1ccc(Br)cc1Cl,-4.58%
6,O=C(c1ccco1)N1CCN(S(=O)(=O)Cc2ccccc2Cl)CC1,-8.49%
7,COc1ccc(C)cc1S(=O)(=O)N(C)CC(=O)N1CCCC1,13.2%
8,COc1ccccc1CNC(=O)CCS(=O)(=O)c1ccc2c(c1)CC(C)N2C(=O)C1CC1 (centres unmarked),15%
9,COc1ccc(C2C(C#N)=C(N)OC3=C2C(=O)CCC3)c(OC)c1OC (centres unmarked),0.978%
10,COCCNC(=S)N(CCc1c(C)[nH]c2ccc(C)cc12)Cc1cc(OC)c(OC)c(OC)c1,-11.8%
11,O=C(NCc1cccs1)C1CC1,19.6%
12,CNC(=O)CSc1nnnn1CCCOC,-0.618%
13,CC(=O)NCCNC(=O)c1ccc(-n2c(C)ccc2C)cc1,11.5%
14,CCN(C(=O)COC(=O)C1=COCCO1)c1ccccc1,-2.33%
15,Cc1cccc(OCC(=O)NCCCNC(=O)c2ccc(C)nc2)c1,17.9%
16,Cl.Fc1ccccc1COc1ccccc1CNCc1ccncc1,-44%
17,COc1ccc(CNC(=O)C(=O)NC2CCC(C)CC2)cc1 (centres unmarked),19.4%
18,C=CCOc1nc(N(C)C)nc(N(C)C)n1,6.61%
19,COc1ccc(/C=N/NC(=O)CN(CCc2ccccc2)S(=O)(=O)c2ccc(NC(C)=O)cc2)cc1OC,-1.75%
20,O=C(NCc1cccs1)c1ccc(S(=O)(=O)N2CCCCC2)cc1,8.62%

row,SMILES,"hERG current change (%, negative = inhibition) at 10uM"
1,N[C@@H](Cc1ccc(N(CCCl)CCCl)cc1)C(=O)O,8.47%
2,CCC(C(=O)NCCC1=CCCCC1)c1ccccc1 (centres unmarked),-2.83%
3,CN1CCC(N(C)C(=O)c2ccccc2Nc2ccc(SC(F)F)cc2)CC1,-62.2%
4,COc1ccc(C(C)=O)cc1COC(=O)c1cccc(N(C)C)c1,1.74%
5,CCC1CCCN1Cn1cnc2c([nH]c3ccc(Cl)cc32)c1=O (centres unmarked),-71.5%
6,O=C(Nc1cc(Cl)ccc1-n1cncn1)c1cncc(Br)c1,-30.5%
7,CC1(C)COC(/C=C/c2ccc([N+](=O)[O-])cc2)=N1,-26.1%
8,O=C(Cn1nc(Cl)nc1Cl)c1ccc(F)cc1,4.76%
9,CCOC(=O)c1c(NC(=O)CSc2nccn2C)sc(C(=O)NC)c1C,-11.5%
10,CCCC1=C(C(=O)OCC)C(c2ccc(F)cc2)n2ncnc2N1 (centres unmarked),-21.3%
11,CSc1ccccc1C(=O)Nc1cccc(C)c1,5.76%
12,O=C(OCC(=O)c1c[nH]c2ccccc12)c1cc2ccccc2cc1O,1.38%
13,CC(C)(C)NC(=S)NNC(=O)c1cccc(Br)c1,17.4%
14,COC(=O)[C@H](Cc1ccccc1)NC(=O)NC(C)CCc1ccccc1 (some centres unmarked),-2.12%
15,CC(C)C(c1nnnn1Cc1ccc(F)cc1)N1CCN(C2CCCCC2)CC1 (centres unmarked),-61.3%
16,CC[N+](C)(CC)CCC(c1ccccc1)C1CCCCC1 (centres unmarked),-3.49%
17,O=C(Nc1ccccc1N(C(=O)c1ccco1)S(=O)(=O)c1cccs1)c1ccco1,2.89%
18,O=C(c1ccc(=O)[nH]c1)N1CCCc2ccccc21,17.3%
19,NC(=O)c1ccccc1NC(=O)c1ccccc1Cl,10.2%
